The structures appear in SMILES notation. Structures can show the parent of a compound that is named as a salt. The list shows a part of the results. Most values come without repeats; read them as rough.
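Note: primary screen of an FDA-approved drug library in HeLa reporter cells in 96-well format, CellMask signal normalized to DMSO-treated wells set as 1, under 0.5 deemed highly cytotoxic.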

The experiment relates to HeLa VPS33A reporter cells. The experiment in a line: relative cell viability (CellMask signal) vs DMSO (fraction of DMSO); HeLa model of a glycosaminoglycan (GAG) storage disease; KI is knock-in and KO knock-out; SDC1 is syndecan 1; higher = less cytotoxic. The settings on record: 50 µM; 24 h.
Compound `CCOC(=O)Nc1ccc(NCc2ccc(F)cc2)nc1N` [Flupirtine maleate] registered a relative cell viability of 1.18.

In turn, `OCC1(O)OC[C@@H](O)[C@@H](O)[C@@H]1O` (stereo partly drawn) [D-(-)-Fructose] displayed a relative cell viability of 0.998.

With `COc1nc(C)nc(Cl)c1NC1=NCCN1` [Moxonidine], the relative cell viability amounted to 0.968.

On to `N[C@H]1CONC1=O` [L-Cycloserine], for which the relative cell viability stood at 1.03.

On to `C[C@@H]1C/C=C/C=C/C=C/C=C/[C@H](O[C@@H]2O[C@H](C)[C@@H](O)[C@H](N)[C@@H]2O)C[C@@H]2O[C@](O)(C[C@@H](O)C[C@H]3O[C@@H]3/C=C/C(=O)O1)C[C@H](O)[C@H]2C(=O)O` [Natamycin], for which the relative cell viability is 1.01.

Consider `O=C(O[C@@H]1C[C@@H]2C[C@H]3C[C@H](C1)N2CC3=O)c1c[nH]c2ccccc12` [Dolasetron], for which the relative cell viability amounted to 1.05.

`C[C@H](CCC(=O)NCCS(=O)(=O)O)[C@H]1CC[C@H]2[C@@H]3[C@@H](O)C[C@@H]4C[C@H](O)CC[C@]4(C)[C@H]3CC[C@]12C` [Tauroursodeoxycholic Acid] registered a relative cell viability of 1.11.

In turn, `COc1ccccc1N1CCN(CC(O)COc2cccc3ccccc23)CC1` (stereo not given) [Naftopidil] yielded a relative cell viability of 1.27.

As for `O=c1c(O)c(-c2ccc(O)c(O)c2)oc2cc(O)cc(O)c12` [Quercetin dihydrate], the relative cell viability was found to be 1.03.

Consider `Oc1cccc(O)c1` [Resorcinol], for which the relative cell viability came out at 0.945.

For the compound `CCCCCCNC(=O)n1cc(F)c(=O)[nH]c1=O` [Carmofur], the relative cell viability was 1.31.

Compound `CC(C)(CO)[C@@H](O)C(=O)NCCCO` [Dexpanthenol] yielded a relative cell viability of 1.03.

As for `COC(=O)N/N=C/c1c[n+]([O-])c2ccccc2[n+]1[O-]` [Carbadox], the relative cell viability was 1.36.

As to `COc1ccc(/C=C/C(=O)Nc2ccccc2C(=O)O)cc1OC` [Tranilast], the relative cell viability came to 1.1.

Take `CC1Cc2ccccc2N1NC(=O)c1ccc(Cl)c(S(N)(=O)=O)c1` (stereo not given) [Indapamide]: the relative cell viability is 1.01.

As to `CN[C@H](CC(C)C)C(=O)N[C@H]1C(=O)N[C@@H](CC(N)=O)C(=O)N[C@H]2C(=O)N[C@H]3C(=O)N[C@H](C(=O)N[C@H](C(=O)O)c4cc(O)cc(O)c4-c4cc3ccc4O)[C@H](O)c3ccc(c(Cl)c3)Oc3cc2cc(c3O[C@@H]2O[C@H](CO)[C@@H](O)[C@H](O)[C@H]2O[C@H]2C[C@](C)(N)[C@H](O)[C@H](C)O2)Oc2ccc(cc2Cl)[C@H]1O` [Vancomycin hydrochloride], the relative cell viability is 1.26.

As for `c1cc(CN2CCCNCCNCCCNCC2)ccc1CN1CCCNCCNCCCNCC1` [Plerixafor 8HCl (AMD3100 8HCl)], the relative cell viability was found to be 1.03.

In turn, `C[C@]12CC[C@@H]3c4ccc(OC(=O)c5ccccc5)cc4CC[C@H]3[C@@H]1CC[C@@H]2O` [Estradiol Benzoate] registered a relative cell viability of 1.02.

`Oc1ccc(OCc2ccccc2)cc1` [Monobenzone] yielded a relative cell viability of 1.02.

In the case of `CC[C@H]1OC(=O)[C@H](C)[C@@H](O[C@H]2C[C@@](C)(OC)[C@@H](O)[C@H](C)O2)[C@H](C)[C@@H](O[C@@H]2O[C@H](C)C[C@H](N(C)C)[C@H]2O)[C@](C)(O)C[C@@H](C)C(=O)[C@H](C)[C@@H](O)[C@]1(C)O` [Erythromycin], the relative cell viability stood at 1.04.

Consider `Cc1nnc(C(C)C)n1C1C[C@H]2CC[C@@H](C1)N2CC[C@H](NC(=O)C1CCC(F)(F)CC1)c1ccccc1` (stereo in doubt) [Maraviroc], for which the relative cell viability worked out at 1.32.

`Cn1nnc2c(C(N)=O)ncn2c1=O` [Temozolomide]: the relative cell viability was 1.28.

`CC[C@@H]1/C=C(\C)C[C@H](C)C[C@H](OC)[C@H]2O[C@@](O)(C(=O)C(=O)N3CCCC[C@H]3C(=O)O[C@H](/C(C)=C/[C@@H]3CC[C@H](Cl)[C@H](OC)C3)[C@H](C)[C@@H](O)CC1=O)[C@H](C)C[C@@H]2OC` [Pimecrolimus] registered a relative cell viability of 0.854.

For the compound `CN1CCC[C@H]1c1cccnc1` [Nicotine], the relative cell viability came to 0.948.

As to `COc1ccccc1Oc1c(NS(=O)(=O)c2ccc(C(C)(C)C)cc2)nc(-c2ncccn2)nc1OCCO` [Bosentan], the relative cell viability was found to be 1.11.

For `CC(COc1ccccc1)NC(C)C(O)c1ccc(O)cc1` (stereo not given) [Isoxsuprine (hydrochloride)], the relative cell viability worked out at 0.981.

Consider `N=C(N)NC(=O)Cc1c(Cl)cccc1Cl` [Guanfacine hydrochloride], for which the relative cell viability is 1.29.

The compound `CC(=O)NO` [Acetohydroxamic Acid] showed a relative cell viability of 1.13.

The compound `O=C(O)C(O)Cc1ccc(O)c(O)c1` (stereo not given) [Sodium Danshensu] came in with a relative cell viability of 1.12.

With `COC(=O)C1=C(C)NC(C)=C(C(=O)OC(C)C)C1c1cccc2nonc12` (stereo not given) [Isradipine (Dynacirc)], the relative cell viability was 1.07.

The values above are taken from the supplement of paper PMC12355420.
